The other results are listed elsewhere or left out. At the low end of the ranking, values are background and their order means little. Measured with an extract: partners may take part in the binding.
The sequences below were run against T1, HNF4alpha2 (COS-7 nuclear extract) (UniProt P41235) (assay: protein-binding microarray). Conditions: COS-7 nuclear extract on double-stranded Agilent 4x180k PBM; binding buffer, salt, pH and temperature not given; high values mean tight binding; double strand, one strand shown; sequences stand for … in …GCCTAGGGAGATTAGAGTATCGGTCGA.
T1 sequence: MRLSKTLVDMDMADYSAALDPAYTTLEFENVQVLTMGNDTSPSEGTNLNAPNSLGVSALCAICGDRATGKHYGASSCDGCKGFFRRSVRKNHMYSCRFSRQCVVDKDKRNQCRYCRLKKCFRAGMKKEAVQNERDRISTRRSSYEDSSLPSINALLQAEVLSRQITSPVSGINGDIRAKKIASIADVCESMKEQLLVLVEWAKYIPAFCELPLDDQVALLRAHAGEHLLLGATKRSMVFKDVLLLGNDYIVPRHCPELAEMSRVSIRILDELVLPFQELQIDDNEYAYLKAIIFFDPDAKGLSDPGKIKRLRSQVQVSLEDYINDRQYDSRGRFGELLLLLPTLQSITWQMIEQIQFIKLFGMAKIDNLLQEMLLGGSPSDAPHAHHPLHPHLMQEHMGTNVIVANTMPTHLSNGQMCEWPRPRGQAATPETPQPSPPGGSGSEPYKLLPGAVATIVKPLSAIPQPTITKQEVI

Sequence | binding signal (log2 normalized intensity)
ATTTGCCACCAATGCCTCTATGTAGCAATC | -0.194
AAAAATAGGAGACTGTCTTAGGAAAGAACA | -1.08
AAGCCTTATCACTGTTTGGCCTATGGGAAA | 1
TGGTATGCTAGAGTACTTGGACTTTAACCT | 9.48
TAAAGTTCAGCTTCTCTTGTTTGTGTAACT | 1.07
AAAGAACAAACTTCCCCTGCAGCTGATCAT | -0.953
GACAGATGAAAGCATATTTGGCCACATCCT | -1.08
GTTCTGCAGACTCCCTAGAAGAGTGAACCT | 1.73
CATCCACATGGGCGTCACCAACCAGCCCTC | 3.08
TGGATCAGCACTGGGTGGGGATAAGAAAAG | -1.09
GGTGAGATAAGAAGACTCCAGGGGACTGCC | -0.872
GCTGCGCGGGGCCTCCCAGTGGTATGCCTC | -1.19
GATAAGAGAAGTTGCTCTTTACACCATTGC | 1.25
GCTGCATGTCATGACCTTCATCAATCAGCC | 1.29
ATAAAACCAGTCAGGCAAACAACAGGCATC | -1.07
CTTTGGACTTTCAAAAGTTAAGGTCAAGAC | 1.94
GCTCCTGTTCCTTTGTTACACTGGCTGCCC | 1.93
TTATCTTCACATTCCATCATCACGGTGGAC | 1.8
CGGGGATGGCAGACGGGGCTCTCAGAATCT | -1.11
CAGCTGGGGCCACCTTTTCAGCTTCCTCCT | -1.01
CCTTTGACTCATTATCCCCCGCAACTATTT | 3.26
TAAGCACTTGTGGTATGTTTGGATTGGGCA | 2.14
ATGACTCTCTTATAGGTGTTTATAAAGTTG | 2.26
TAGACAAACAGCAATAGCAAGACTGCAAAA | -1.25
GACTAGGCACAGGAACCTGTTTTACAGGAC | -1.25

Sequence | binding signal (log2 normalized intensity)
CTTCATAGTGGTTTGACTTTTTTTTTTTTT | 2.55
CCACATCGAAGGCCAAGGGATTTCAGTGCC | -1.07
AAGGAGCTTGGGAAGACAGATGTGATATTC | -0.781
CTTCTCACCACCTCTGCTGCGATCACCCAG | -1.13
GCATATCTCTAGATCTCAGTTGGTCCAAGG | 1.83
CAACTAGGCCTGAAATTTGGCCTGCTGAGC | -1.17
ATAACACTATTTGATGAGTCTTAGAGTCCA | 2.26
ACTTTGCCCTTTTTTTCTCTCCCCTTTTAA | 2.54
GTGTCAGTCCAGAGTTTGTGGCTCCATACT | -0.558
ACCGTCTTGTGGATCCTTGGAGGACCTTGG | 1.76
AATATGTGGACTTCAAAGGTACTTATCAGA | 1.35
CCCCCTATGTAAAGGCCTTTGAAGCTTGAA | 2.52
CCTCAAATTACAAAAGGAGTTGGGGGACAG | -1.18
GCCAACCTTGGGTCTACATGGAAGCCCAGA | -1.18
AGAATAAATATTTGGTGAATAAACAAATAA | -1.09
GCAGACATTTAGGCAAACATAAACTCAGAG | -1.1
CACCAACAGGATTGTGAAACGTTTGAATTC | 0.425
AGCCAGTGAACCTTTGTCCCGTTATGGCAC | 2.88
ACATTAATCAGTCGCGTATCTGACTTTATC | 0.796
TCACTGGGAGAGAAAGCTAATTTAATAAAC | -1.11
TCCTCTTATCTTCAGGTTTGCTAATATCTG | 1.35
GTAAAATGGACATAGTAACAACCTAAATCA | -1.07
TCCACTAACTTGAGTGTGCACCCTGGTCTC | 1.66
AAAATACAGCTGGGAAAAGGCGCATGCATA | -1.05
CTGTCCCTTCTTGGCAAGTTAATGTGGCCT | 2.29

Sequence | binding signal (log2 normalized intensity)
CACAGGCAACAGAGGAGCATGGACTTCTGA | 1.32
GTTTGCATTTTAACCTTTGGCTGGTAGAGC | 3.5
GAGACCTCTAGACTCCAGCTAAAGCCTGCT | -1.1
CGAAATGTGGGTGAGGCTGTGATGTTTGCC | 1.31
CAGTAGTATTACCTGCATCTGCCCAGCAGA | -1.09
GCAAACCTACCTGAACTTTGCCCCAGAGGA | 5.9
CTTTCCGTTAGGCTACAGTGGTAACCACAG | -1.13
TTAATACTTTGGAACTCAGTTAATGTACAG | 1.49
TGTTTCTTGTCCAGGGACTTTGAACACTTC | 4.36
GATGACATCATCTGTTTGTACGCGTCGAAC | -0.199
GACAGGAACATCTGATTTCCCCGTCCCAAG | 2.96
AAGGTCACTAATTGGAAGCTCTTTCCCTCC | 0.63
GGCTGTATGTACACTTGCCCTCTCACCAGA | 1.21
TGTTTGGATTGGGCAATGACCTGGACAGGT | 1.73
TGCAATGCATGCTGCCAAACTGCCCAGCAG | -1.15
ACCAAAGGTCTTGTACAAAGGTCCTGTGGG | 1.66
TTCCATATTCTATCAGTAGGTACGTTTGTG | 2.42
TTTTCAGACCTTGCATTCTGAGGAACCAGA | -1.07
AACCCGGGCGCACAAGATGCCGCCTCCCCG | -0.673
AGGTGAGCAGGCAGAGGTCAATGTCCACAC | 5.59
TGAGATAGGTATGATAACCCCCGTCACTGC | 3.44
ACAGAGATCAGAATCATAAAGCAGGGAGAG | -1.1
GGCAGCTTAAAAATGTTGACGCTATTTTAG | -1.05
CAAGGAGGCCCCAACATTCCAGAGAAGCAC | -1.2
TTGGCAGCCACTGAGGCTCTGTGCCTTGTA | -0.881

Sequence | binding signal (log2 normalized intensity)
ACACAGGCTCAACGGGTTAGACGCACGGCA | -1.06
ACCAAGGCTGCTTAACAAACACAAAAAGCG | -1.13
ATTTTACACCTTTTCTAGCTGAGTTGACCT | 4.46
GGGACAGATGTTTGGTTGAGCAAGCTGACA | -1.08
GGGAGGTTATCTTGGGGCTGATGTCTTTCT | 1.74
TCAAACAGTCTAAAAACCATAGACATTCCT | -1.1
CAAACTGCCCAGCAGAAAAGCTGTACCAAT | -1.1
AGGTTTTGAGGGAAGTGAACCAATCTTGAG | -0.0415
TAATCAAAGAGAAAAACATTGCATACTCAG | -1.09
CAGTTCAGGCCATCACACTCCTACCCATTC | -1.29
ACAACACTCAGGATACCTAAGCCCCATGCT | -1.06
AGCAGAGCACGATGAATAGGGACGTTCTAC | -1.02
ACTCTAACTGGCTTTAAGAGGAATGCTTTG | -0.822
GCAGTTCCTGATCTTTGACCTGGAGCATGA | 4.61
AGGGAAGGCTGCCGTCCTCAGTGAATCACA | -1.08
GTTTTGGCCAACAGAGGGGTCAGAGGCCAG | 2.43
TCCTGCCAAACCAGTTCAACAAGAATTCCC | -1.06
AGTCTCAAAGGTCAGATGACAGAATTGGTC | 3.5
CTTCAGGATGAAGGCTGCTGCCTGAAAGGC | -1.1
GAGCAAAGGGCATGGAGGATTTAGATAACA | 0.799
GGAGCCACTGAAGTGAGTTAATAAATACTG | -1.13
GCTGATTACAGGTTGCAGTAAAGAAACTGG | -0.945
AATCCTGCTCCTTCTGAATCTGTTCCACCT | 0.623
GTTCTCTAGAAACAGAGCCCAAGGCAAAGC | -1.08
TGAAGTCAAAGGAGGCATTCCTGCAATCAG | -0.786

Sequence | binding signal (log2 normalized intensity)
CAGCCTGGAGGAGGGCGAGGCCGAGCCTCA | -0.906
TTGCCTAACTGCTGCATGTCATGACCTTCA | 3.45
AGTGGAGAAACCTGACAGACTGGACTGCTG | -1.09
AGCCCCTTTTGGAATCCCCATCTCACCATA | 3.22
AGCCTTTGAGAAGCAGGAGCATGGGGGATG | -1.3
GCTGGGATGATTCCCTTATCTTCTCCCCTG | 1.8
CTCTTTGGCCTGGCATTTGAGACTAGCCAC | -0.813
AGAGGTCAGCCCACAGGTCAATCCAGGTTG | 0.169
GAATGTAGACCTTTACCACCCTCACAGCTC | 0.795
TTCAGCGGTGCATTTTTTTCCACCCTCCCC | 4.27
CACATTAACTGTGCTTCTGGGGTATAAAGG | 1.72
AAAAAAAAAGGCAGTCCTTAGATCCACGGA | -1.21
TCATTCTAACCCAAATGCAAATACCTATAG | 1.36
GTTGTACCTTGACCCAAGAAATAAAAACAG | 2.03
TGAGAGGCCAGTTTCTCCACAGCCTCACCA | -1.14
CTTAGCCAAAGAGAAGCCTAAGCAGGGCTA | -1.11
TATTTCAGCTTTGACGCCACCTGAAGGCAG | -1.22
TGTCATCTAGACCTGGACTTGAAGCCAGAC | -0.168
CCACACGTCCCCTTCATGTTTTCACCAAGA | 0.569
AGCAATCATATATGCATTTGTCTCAGGTGG | 1.86
ACAACAAAGGAAATGAAGCAACACTTTCTG | -1.08
GAGGTCTGGACCCTTGGCACTTTCACGATA | 0.675
TCAAATTACAAGGAGATATGCACTTGCCCT | 2.16
TCTTTGATTAGGAAAGGGAACTCCCTGACC | -0.639
GGTCTAAACCTACTTAGATCAAGATTTTCA | -1.19

Sequence | binding signal (log2 normalized intensity)
TTGCATCAGCTGGGCTCGGCGCTCCGCTTA | -1.19
GGATTTTGGAGCCAAACAGGTGTGGGTTCA | 1.92
GGCAATATCTCCCAGCTGGAGTCTTCTCTA | -1.01
ATTTAACCTGTATTAGGAAATTGTCAGTGC | 1.36
GTGCGCTGCCCCTCACTGCCCAGCCTCTCC | 3.24
GGCAAGGCCTCGTGAAAGTTAACTTTGTAA | 0.851
AAAGTCCAACACAGAAGCCTTTTGTTCTTT | 1.77
AACCTTTGCCCCCCTGGGCTCAAGCGATCC | 5.28
AAAACTACACTCTTGCTAAACCCTCTAACA | -1.16
ACTTTGCTGTGTCCCACAGGGAAAGTATGG | 0.199
AAGGAGCCTAACTTTGATAGGCACAATCAG | -1.12
TATGACGGTGTATGCTCTCAGTGCTAACAC | -0.7
TGCCCGAGCTGCCCTTTATCTCCTCTCTTC | 1.55
TGTGCTGTGGCTGCCAAGACACAGAGAAAA | -1.22
TCTGCTATCTAAAAGCTTATCTGCACAATG | -1.24
TTTCTTGTCTGCCCCAGGGCTTTGCAGGGA | 1.68
AATAGAGCTCTAAACCACCCAATCCTGCAG | 1.91
GGGGGCAGGGCTGGTCGGATGGCCGTGGGT | -1.06
CTCACTGACTTCCATCAATGAAGCATATCA | -1.17
TATCTTGATCAGAAAAGAAAGTGAGGAATG | -1.16

— publication PMC10726135
